# Measurements from the supplement of paper PMC12217912.
# The list shows a part of the results. Sequences were assembled here from the parent chain. Inactive controls read about 0.05.
# B1: TEV protease; numbered along this chain (parent)
# chain: MGESLFKGPRDYNPISSSICHLTNESDGHTTSLYGIGFGPFIITNKHLFRRNNGTLVVQSLHGVFKVKDTTTLQQHLVDGRDMIIIRMPKDFPPFPQKLKFREPQREERICLVTTNFQTKSMSSMVSDTSCTFPSGDGIFWKHWIQTKDGQCGSPLVSTRDGFIVGIHSASNFTNTNNYFTSVPKNFMELLTNQEAQQWVSGWRLNADSVLWGGHKVFMVKPEEPFQPVKEATQL
# Variants of: B1
# Assay: raw area under fraction-flipped curve 0-4 h after induction (AUC4h, not background-subtracted), DNA-recorder readout of cleavage of the substrate (dimensionless); higher = more cleavage of the substrate by the protease variant
# Settings: temperature: 34 °C; time window: 0-4 h after rhamnose induction
# Method: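 In vivo DNA recorder in E. coli TOP10(DE3) ΔrhaA at 34 °C. Each TEVp single-site mutant (parent TEVp 0) is paired with a single-site variant of the 7-mer TEVs (canonical ENLYFQ|S). The substrate sits between flexible linkers in a Bxb1-sfGFP-TEVs-SsrA fusion, so cleavage stabilises Bxb1 and speeds flipping of a recombination array, read by NGS. The value is the raw area under the fraction-flipped curve over 0-4 h after rhamnose induction (AUC4h), with ≥20 reads per time point. It is not background-subtracted; inactive controls average about 0.047.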
# 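Further: Bxb1 expression induced with 0.2% (w/v) L-rhamnose at OD600 near 0.5, cultures sampled hourly, flipped fraction per protease–substrate barcode pair counted by paired-end Illumina sequencing.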
Variant,area with substrate ENLYAQS,area with substrate ENLYCQS,area with substrate ENLYEQS,area with substrate ENLYGQS,area with substrate ENLYHQS,area with substrate ENLYLQS,area with substrate ENLYMQS,area with substrate ENLYNQS,area with substrate ENLYPQS,area with substrate ENLYQQS,area with substrate ENLYRQS,area with substrate ENLYSQS,area with substrate ENLYVQS,area with substrate ENLYDQS,area with substrate ENLYIQS,area with substrate ENLYKQS,area with substrate ENLYWQS,area with substrate ENLYYQS,area with substrate ENLYTQS
P89T,0.0712,0.0473,0.0486,0.0699,0.0626,0.0674,0.0786,0.064,0.0627,0.0408,0.0713,0.0645,0.0982,,,,,,
V57P,0.0632,,0.0461,0.0496,0.0405,0.0468,,0.0467,0.0357,,0.0625,0.0397,,0.0458,0.037,0.039,,,
F92S,0.0888,0.0711,0.0591,0.0696,0.0454,,0.0554,0.0717,,,0.0731,0.0627,,0.0668,0.114,0.0616,0.0745,0.0444,
Q75Y,0.0642,,,0.0642,0.0599,0.0451,0.057,0.0629,0.051,0.0626,,0.0575,0.0803,0.0617,0.0656,0.0666,,0.0588,0.0638
Q75G,0.0655,,0.0616,,0.0401,,,0.0618,0.0588,,,,0.103,0.0425,0.109,0.047,0.063,0.0571,
N24I,0.0774,,0.0654,0.0602,0.056,0.0803,0.0651,0.0825,0.062,0.0559,0.0578,0.0626,0.0685,0.0589,0.0689,0.0555,0.0668,0.0651,
F65K,0.0497,0.103,0.0622,0.0532,0.0609,,,0.0767,0.0891,0.0635,,0.0681,0.0716,0.0748,0.0821,0.0799,0.0721,,
F65C,0.0663,,0.0664,0.0616,0.0621,,0.0781,0.0352,,,0.0671,0.0705,0.102,,0.112,0.0603,,0.0576,0.0524
K90T,0.0897,0.0918,0.0811,,0.0751,,0.0732,0.0654,0.0693,0.08,,,0.103,0.068,,0.063,,0.0517,0.143
S60N,0.0705,0.0721,0.0551,0.0503,0.0662,,0.0639,,0.077,0.057,,0.0724,0.11,0.0718,,,,,0.0803
S60I,0.064,,0.0603,,0.0591,,,,0.0527,0.0555,0.0381,0.103,0.0882,0.0201,,,,,
D69V,0.0668,0.058,0.0578,0.065,0.0606,,0.0684,0.0586,0.037,0.055,0.063,,,,0.0923,0.059,,0.052,0.0662
R51Q,0.0803,,0.0651,0.0639,0.082,,0.102,0.0734,0.0737,0.0597,0.069,0.0738,0.123,,0.157,0.038,0.0779,0.062,
R51D,0.08,,,0.0757,0.0706,,,0.0611,0.0795,,0.0762,,,0.0591,0.122,,0.139,,
Y34T,0.0685,0.0703,,0.081,0.0555,,,0.0634,,0.0723,,0.0793,,0.0638,0.0735,0.0677,0.0994,,
P93E,0.093,,,0.0449,0.0865,,0.103,0.0779,0.098,0.0555,0.0648,0.0713,,0.0454,,,0.101,,
F41Y,0.0659,,0.0516,0.0482,0.075,0.0867,0.0662,,0.0719,0.08,0.0658,0.0722,0.122,0.0524,,0.0036,0.0649,0.0692,0.0717
D79R,0.0586,,0.0668,0.0666,0.064,,,0.0641,0.0609,0.0576,0.0803,0.0697,0.09,0.0581,0.0951,0.0651,,,0.071
Q59W,0.08,,0.0737,0.0688,0.0746,,0.105,0.0747,,,,,,0.0742,0.151,,0.106,0.0872,
Q59S,0.087,,,,0.0629,,0.0527,,0.0754,0.069,0.0538,0.0682,,0.0845,0.119,0.0687,0.0779,,0.108
L61Y,0.0619,0.0965,0.072,,,,,,0.0598,,,0.0751,0.138,0.0456,,0.068,,,0.0757
L33A,0.0722,0.0734,0.0747,0.0478,0.0546,,,0.0539,0.0679,,0.0659,,0.0871,,0.0629,0.0591,0.0713,,0.044
L33T,0.0742,,0.0687,,,,,0.0558,,0.0671,0.0494,,0.0835,,0.0745,0.0558,,0.0605,
L5S,0.0022,,0.0894,,,,,0.0598,0.0813,,0.0608,0.0863,,,0.153,0.0454,0.0999,,0.0784
D82C,0.0583,0.0685,0.0579,,0.0635,,0.0559,0.0573,,,0.064,,0.0443,,0.059,0.0154,0.0551,,
D82T,0.0551,0.0414,0.0602,0.0578,0.0463,0.0616,0.0598,0.0476,0.0559,,0.0671,0.0661,0.0545,0.0614,0.0446,0.0613,0.0884,0.0573,
K68S,0.0812,,,,0.0657,0.0722,0.0722,,0.0837,,,,0.105,0.174,,,0.0803,,0.0809
D91G,0.0764,0.0999,,0.0566,0.0675,,0.0825,0.0873,0.0795,0.0742,,0.0519,0.0904,,,0.0484,0.113,0.0767,
